Assay results: PubChem BioAssay AID588855 (National Center for Advancing Translational Sciences (NCATS), 2011)
Out of some 410,000 compounds screened, about 5,000 (1.2%) were called active. The shares of active, inactive and inconclusive entries below differ from those in the screen. Calls follow the shape of the dose curve; as a rule, active = well fitted inhibition curve with a large enough effect; inconclusive = small, poorly fitted or top-dose-only effect; inactive = no such curve, though single readings can be large or run the other way. Where the call is inconclusive, the potency comes from a doubtful curve fit.

Assay: qHTS for Inhibitors of TGF-b; also: nearly all actives have a fitted effect of over 65% in size
Conditions: HepG2 CAGA-GFP TGF-b/SMAD3 reporter, GFP fluorescence, 18 h, TGF-beta stimulated, 500 pg/mL final; series mostly up to 46.1 µM
In short: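 Inhibition was scored as loss of TGF-beta-induced (500 pg/mL final, 18 hours, 37 degrees C) GFP in HEPG2 cells carrying a CAGA-GFP reporter, in DMEM with 1% FBS. Well GFP was summed per cell; Activity was normalised to unstimulated and stimulated DMSO wells, then concentration-response fitting.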
Potency is read from the fitted curve at half-maximal effect; tags tell the direction and shape of the fitted curve.

SMILES | Potency
Cc1ccc(N(C(=O)Cn2nnc(-c3ccc(C)o3)n2)C(C(=O)NC2CCCC2)c2ccco2)cc1 (stereo unspecified) | inactive
C#CCOCCOCCOCCNc1nc(N2CCN(C(=O)CCCCCCCCCCNC(=O)[C@@H](CCSC)n3cc(CCO)nn3)CC2)nc(N2CCN(C(=O)CCCCCCCCCCNC(=O)[C@@H]([C@H](C)O)n3cc(C)nn3)CC2)n1 | inactive
Cc1ccc(CN=C2Nc3ccccc3CS2)cc1 | inactive
COc1ccc(OC)c(NC(=O)Cc2c(C(=O)O)n(C)c3ccc(C)cc23)c1 | inconclusive: 0.631 µM [inhibitor, partial curve, poor fit]
Cc1nc(N2CCOCC2)c2c(C)c(C(=O)Nc3ccc(C(F)(F)F)cc3)sc2n1 | inconclusive: 35.5 µM [inhibitor, single point]
Cc1ccc(C(=O)C(OC(=O)CNS(=O)(=O)c2ccccc2)c2ccccc2)cc1 (stereo unspecified) | inconclusive: 28.2 µM [inhibitor, single point]
Cc1ccc(-n2c(SCC(=O)NCC3CCCO3)nc3n[nH]c(C)c3c2=N)cc1Cl (stereo unspecified) | inconclusive: 3.98 µM [inhibitor, full curve, poor fit]
Cc1cccc(-c2cnc(C(O)c3ccc4ccccc4c3)[nH]2)c1 (stereo unspecified) | inconclusive: 35.5 µM [inhibitor, single point]
Cc1ccc2cc(CN(Cc3ccc4c(c3)OCO4)Cc3nnnn3Cc3ccco3)c(=O)[nH]c2c1C | inconclusive: 35.5 µM [inhibitor, single point]
O=C(N/N=C/c1ccc([N+](=O)[O-])s1)c1cccc(Br)c1 | inconclusive: 10 µM [inhibitor, partial curve, poor fit]
Cc1ccc(-c2noc(CN(C)C(=O)c3ccoc3C)n2)cc1 | inactive
CNC(=O)c1[nH]cnc1C(=O)Nc1cccc(Cl)c1 | inconclusive: 5.62 µM [inhibitor, full curve, poor fit]
Cc1ccc(Cn2ccc(NC(=O)c3nn(C)cc3[N+](=O)[O-])n2)cc1 | inconclusive: 35.5 µM [inhibitor, single point]
Cc1ccc(N=C2NC(=O)/C(=C/c3cccn3C)S2)cc1C | inactive
CCOc1ccc(S(=O)(=O)NCCC(=O)NCC(c2ccco2)N2CCCCC2)cc1 (stereo unspecified) | inactive
CSc1ccc(/C=C(/Sc2nnc(-c3ccccc3)o2)C(=O)O)cc1 | inconclusive: 12.6 µM [inhibitor, partial curve]
Cc1ccccc1NC(=O)c1ccc(Cl)c(S(=O)(=O)N2CCCCCC2)c1 | inconclusive: 6.31 µM [inhibitor, single point]
CCOCCCNC(=O)c1c(NC(=O)Cc2coc3ccc(C)cc23)sc2c1CCC2 | inconclusive: 35.5 µM [inhibitor, single point]
CCc1ccc(S(=O)(=O)c2c(C(=O)c3ccccc3)cnc3ccc(CC)cc23)cc1 | inconclusive: 31.6 µM [inhibitor, single point]
CCCn1c(C(O)c2ccc(C)cc2)nc2ccccc21 (stereo unspecified) | inconclusive: 35.5 µM [inhibitor, single point]
COc1ccccc1CN1CCC(CNC(=O)c2cnn(-c3ccc(Cl)cc3)c2C2CCN(C(=O)OC(C)(C)C)CC2)CC1 | active: 10 µM
COc1cc2c(NC3CCN(C(C)C)CC3)nc(N3CCCN(C)CC3)nc2cc1OCCOCCN1CCCC1 | inconclusive: 22.4 µM [inhibitor, partial curve, poor fit]

SMILES | Potency
O=C(CCl)N(c1ccccc1)C1CCCCC1 | inconclusive: 28.2 µM [inhibitor, single point]
COc1cc(C(=O)N/N=C/c2ccc(OC(=O)c3cccc(C)c3)cc2)ccc1O | inactive
COc1ccc(N2C(=O)CC(Sc3ncn[nH]3)C2=O)c(OC)c1 (stereo unspecified) | inconclusive: 0.794 µM [inhibitor, full curve, poor fit]
O=C(NCCCc1nc2ccccc2n1Cc1ccc(Cl)cc1Cl)c1ccco1 | inconclusive: 35.5 µM [inhibitor, single point]
Cc1cc(N/N=C/c2ccc(O)c(C)c2O)nc(-c2ccccc2O)n1 | inconclusive: 28.2 µM [inhibitor, partial curve, poor fit]
COc1ccc(C(=O)N2c3ccc(C)cc3C(C)(c3ccccc3)CC2(C)C)cc1 (stereo unspecified) | inconclusive: 12.6 µM [inhibitor, partial curve, poor fit]
NC(=S)NN=C(c1ccc(Br)cc1)C1CC1 | inconclusive: 17.8 µM [inhibitor, single point]
O=C(C1=C(O)C(=O)N(CCN2CCOCC2)C1c1ccc([N+](=O)[O-])cc1)c1cccs1 (stereo unspecified) | inactive
COc1cccc(CC2(CO)CCCN(Cc3cn(C)c4ccccc34)C2)c1 (stereo unspecified) | inconclusive: 11.2 µM [inhibitor, partial curve, poor fit]
Cn1cc(Cc2ccccc2)c(=O)c(Cc2ccccc2)c1 | inactive
O=C(NC1CCN(Cc2ccccc2)CC1)C1CCN(S(=O)(=O)c2ccc(Cl)cc2)CC1 | inactive
Cc1ccc(-c2nn(-c3ccccc3)cc2C(=O)OCC(=O)Nc2ncc(Cl)cc2Cl)cc1 | inactive
O=C(N/N=C/c1ccco1)c1cccc(S(=O)(=O)Nc2ccccc2Cl)c1 | inactive
CCOC(=O)N1CCN(C(=O)COc2cccc3c2CCN(Cc2ccccc2F)C3=O)CC1 | inconclusive: 35.5 µM [inhibitor, single point]
O=C(CCCN1C(=O)/C(=C\c2cccs2)SC1=S)Nc1ccccn1 | inconclusive: 35.5 µM [inhibitor, single point]
Cc1ccc([C@H]2C(C(=O)O)=C[C@@H](CC3CCCC3)N2S(=O)(=O)c2ccc(C)cc2)cc1 | inconclusive: 22.4 µM [inhibitor, partial curve, poor fit]
COc1cc(N/N=C/c2ccc(N(C)C)cc2)ncn1 | inactive
COc1ccc2c(c1OC)C(=O)OC2Nc1ccccn1 (stereo unspecified) | inconclusive: 35.5 µM [inhibitor, partial curve, poor fit]
CCOC(=O)c1csc(NC(=O)c2ccc3c(c2)OCCO3)n1 | inconclusive: 12.6 µM [inhibitor, single point]
COC(=O)CCC(C)C1CCC2C3CCC4CC(O)CCC4(C)C3CC(O)C12C (stereo unspecified) | inconclusive: 11.2 µM [inhibitor, partial curve, poor fit]
CCN(CC)c1ccc(NC(=O)C2CCCC2)cc1 | inactive
CCOc1ccc(N(CC)S(=O)(=O)N2CCCC(C(=O)NCCc3ccccc3OC)C2)cc1 (stereo unspecified) | inconclusive: 12.6 µM [inhibitor, partial curve, poor fit]

SMILES | Potency
CCOc1ccc(N(C)S(=O)(=O)c2cc(-c3cc(C)no3)ccc2C)cc1 | inactive
COc1ccccc1N1CCN(S(=O)(=O)CCNC(=O)C23CC4CC(CC(C4)C2)C3)CC1 | inconclusive: 12.6 µM [inhibitor, partial curve, poor fit]
Cc1cccc(Oc2coc3cc(OCC(=O)NC4CCCCC4)ccc3c2=O)c1 | inconclusive: 12.6 µM [inhibitor, partial curve, poor fit]
COc1ccc(-c2cn3nc(N4CCC(C(=O)Nc5ccc(C)cc5)CC4)sc3n2)cc1 | inactive
CN(C)c1cc[n+](Cc2ccccc2)cc1 | inconclusive: 35.5 µM [inhibitor, single point]
COc1cccc(C(=O)OCC(=O)c2ccc(Br)s2)c1 | inactive
Cc1cccc(N2CCN(CC(=O)N(C)Cc3ccccc3)CC2C)c1 (stereo unspecified) | inconclusive: 3.55 µM [inhibitor, partial curve, poor fit]
Oc1ccc(CN2CCC(Cc3ccccc3)CC2)c2cccnc12 | active: 7.08 µM
COc1cccc(CNC(=O)CCCSc2ccccc2)c1 | inconclusive: 10 µM [inhibitor, partial curve, poor fit]
CC1(C)OC2C(CO)OC(n3cnc4c(=S)nc(N)[nH]c43)C2O1 (stereo unspecified) | inconclusive: 35.5 µM [inhibitor, single point]
CCOC(=O)C1CCN(C(=O)c2ccccc2NS(=O)(=O)c2ccccc2)CC1 | inconclusive: 3.16 µM [inhibitor, single point]
COc1ccc(N/C=C/C(=O)c2cc(OC)c(OC)c(OC)c2)cc1 | inconclusive: 12.6 µM [inhibitor, partial curve, poor fit]
COc1ccc2[nH]c(=O)c(-c3noc(-c4ccccc4)n3)cc2c1 | inactive
OC(CNCc1ccc(-c2ccccc2)cc1)c1ccccc1 (stereo unspecified) | inconclusive: 14.1 µM [inhibitor, partial curve, poor fit]
c1ccc2c(C3=NNC(=NC4CCCCC4)SC3)c[nH]c2c1 | inconclusive: 15.8 µM [inhibitor, single point]
COc1ccc(C(=O)NCC(c2ccc3c(c2)OCO3)N2CCN(c3ccc(F)cc3)CC2)cc1 (stereo unspecified) | inconclusive: 11.2 µM [inhibitor, partial curve]
COCCNc1nc(NCc2cc(-c3ccc(OC)cc3)no2)c2sccc2n1 | inconclusive: 35.5 µM [inhibitor, single point]
CC(=O)Nc1nnc(C)s1 | inactive
Cc1nnc(SCC(=O)N(C)CC(=O)Nc2ccc(F)cc2)n1Cc1ccccc1 | inactive
Cc1ccc2c(c1)/C(=C/c1ccc(F)cc1)C(=O)N2 | inconclusive: 35.5 µM [inhibitor, single point]
COc1ccc2cc(-c3[nH]ncc3CN3CCCC3c3nonc3C)ccc2c1 (stereo unspecified) | inconclusive: 12.6 µM [inhibitor, partial curve]
O=C(CCS(=O)(=O)c1ccccc1)Nc1nccs1 | inconclusive: 35.5 µM [inhibitor, single point]
